Test results taken from PubChem BioAssay AID360 (National Center for Advancing Translational Sciences (NCATS), 2006).
The whole screen tested about 48,000 compounds, of which about 550 (1.1%) were called active. Another 4% or so got no clear call; they are omitted. Rule as the data show it: active = potency below about 15 µM; inconclusive = mostly about 16 µM to 33 µM; inactive = weaker than that. This is one part of the list.

molecular target: Lysosomal acid glucosylceramidase (Homo sapiens) (UniProt P04062); assay: Glucocerebrosidase; details: purified enzyme, resorufin glucoside fluorescence (screen aimed at inhibitors), 20 min; series mostly up to 77 µM;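 also: the screen sought inhibitors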
Outline: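 Wild-type enzyme at 0.2 nM final in 50mM citric acid/KH2PO4, 10mM sodium taurocholate, 0.01% tween-20, pH 5.9, with resorufin beta-D-glucopyranoside at 30 uM final. Compounds titrated, 20 min at RT, red fluorescence read; AC50 from titration.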
Potency is read from the fitted curve at half-maximal effect.

Sequence of UniProt P04062 (P04062 whole entry, looked up): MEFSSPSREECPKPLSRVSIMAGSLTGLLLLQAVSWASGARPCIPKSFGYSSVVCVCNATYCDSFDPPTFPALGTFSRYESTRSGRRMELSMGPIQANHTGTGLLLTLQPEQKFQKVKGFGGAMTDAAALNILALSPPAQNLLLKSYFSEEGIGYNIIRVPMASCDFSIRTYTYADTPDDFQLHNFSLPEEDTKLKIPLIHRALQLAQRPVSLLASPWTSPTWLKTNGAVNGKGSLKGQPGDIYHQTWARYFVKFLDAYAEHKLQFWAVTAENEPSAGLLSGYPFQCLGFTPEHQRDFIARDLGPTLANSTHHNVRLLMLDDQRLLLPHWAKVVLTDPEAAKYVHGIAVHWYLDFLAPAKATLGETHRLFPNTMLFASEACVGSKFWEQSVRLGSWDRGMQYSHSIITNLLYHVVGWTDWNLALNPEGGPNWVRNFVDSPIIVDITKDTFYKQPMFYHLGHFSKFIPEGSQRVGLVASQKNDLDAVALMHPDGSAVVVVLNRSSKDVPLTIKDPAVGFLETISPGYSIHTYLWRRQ

Potency, inactive:
CCN(CCCNC(=O)C1CCN(S(=O)(=O)N2CCC3(CC2)OCCO3)CC1)c1ccccc1 > 76.9 µM, COc1ccc(C(=O)N(CCCO)Cc2cc3c(C)ccc(C)c3[nH]c2=O)cc1OC > 76.9 µM, Cn1c(=O)c2c(nc(-n3ccnc3)n2C)n(C)c1=O > 76.9 µM, CC(C)C(c1nnnn1C1CCCCC1)N1CCN(c2ncccn2)CC1 (stereo not given) > 76.9 µM, CC(=O)Oc1ccc(C(=O)O)cc1OC(C)=O > 76.9 µM, Cc1sc2nc3n(c(=O)c2c1C)Cc1ccccc1-3 > 76.9 µM, Cc1ccc(C)c(NC(=O)CCN2CCOCC2)c1 > 76.9 µM, O=C(CSc1nc2c(c(=O)[nH]1)CCC2)Nc1cccc(Cl)c1, Cn1c(COc2ccccc2)nnc1SCC(=O)Nc1ccc(N2CCOCC2)c(Cl)c1 > 76.9 µM, Cc1ccccc1-c1ccc(Nc2ccc(C(=O)N3CCOCC3)cc2)nn1 > 76.9 µM, O=C(O)C1CSC2(c3ccc4c(c3)OCCO4)CCC(=O)N12 (stereo not given) > 76.9 µM, COc1ccc(OC)c(S(=O)(=O)N2CCc3ccccc32)c1 > 76.9 µM, Cc1cc(C(=O)CN2C(=O)c3ccccc3S2(=O)=O)c(C)n1-c1ccccc1 > 76.9 µM, O=C(CCCSc1nc2ccccc2s1)Nc1nccs1 > 76.9 µM, Cc1ccc(CNC(=O)CCCn2c(=O)c3ccccc3n(CC(=O)NC3CCCC3)c2=O)cc1 > 76.9 µM, Cn1c(SCC(=O)NC2CCCCC2)nnc1-c1cc2cc(Cl)ccc2o1 > 76.9 µM, CC(=O)Nc1cccc(C(=O)OCc2ccccc2)c1 > 76.9 µM, O=C(CN1CCN(C(=O)N2CCOCC2)CC1)Nc1ccc(Br)cc1 > 76.9 µM, CCS(=O)(=O)N1CCC(C(=O)NCCN2CCN(Cc3ccccc3)CC2)CC1 > 76.9 µM, Cc1ccc2cccc(O)c2[n+]1[O-] > 76.9 µM, CC(C)NC(=O)CCS(=O)(=O)c1ccc(Br)s1 > 76.9 µM, COC(=O)c1sc(S(=O)(=O)NCc2cccs2)c(C(=O)OC)c1C > 76.9 µM, CC(=O)ON1C(C)(C)CC(OC(=O)c2ccccc2)CC1(C)C > 76.9 µM, CCc1ccccc1NC(=O)CCc1nc(-c2ccc(C)cc2)no1 > 76.9 µM, CN(CP(=O)(O)CN(C)S(C)(=O)=O)S(C)(=O)=O > 76.9 µM
